Measurements published in paper PMC6404114, “OTULIN deficiency in ORAS causes cell type‐specific LUBAC degradation, dysregulated TNF signalling and cell death” (EMBO Molecular Medicine, 2019).

Target: T1, FlAsH-labelled M1-linked diUb (UniProt P0CG47 fragment; P0CG47 fragment, FlAsH label (position not given))
T1 construct: ubiquitin, distal moiety of Met1-linked (linear) diubiquitin; its C-terminus is joined to Met1 of the next ubiquitin; ubiquitin, proximal moiety of Met1-linked (linear) diubiquitin; also called linear diubiquitin
Assay: fluorescence polarisation; FlAsH-labelled M1-linked diUb with recombinant catalytically inactive OTULIN; performed as in Keusekotten et al, 2013; technical triplicate
Details: both partners purified

B1: OTULIN^C129A/G281R (enzyme)
chain: not shown
notes: Construct limits may stand in the Appendix Supplementary Methods; source: E. coli, purified (as described in Elliott et al, 2014)
B1 was tested, and the Kd was 9.3 µM.

B2: catalytically inactive OTULIN^C129A (enzyme)
chain: not shown
notes: also called OTU family deubiquitinase with linear Ub specificity; FAM105B; source: E. coli, purified (as described in Elliott et al, 2014)
For B2, the Kd was 0.085 µM.
